# Results: the supplement of paper PMC11417369
# ± gives the standard deviation of the averaged measurements. Some of the results follow.
# System: PfAP2-EXP AP2 domain (GST-tagged)
# Experiment: gcPBM binding intensity (ln(normalized median fluorescence intensity)); higher = stronger DNA binding
# Method in brief: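 Plasmodium falciparum DNA-binding domains carrying a GST tag were expressed in E. coli and applied for 1 h, at about 25 μg on average, to an Agilent 4 × 180k array. The array held primer-extended double-stranded 36-bp intergenic genomic probes together with negative controls, and binding took place in 1× PBS with 1% milk, 0.2 mg/ml BSA, 0.5% salmon testes DNA and 0.03% Triton X-100. An Alexa488 anti-GST antibody detected bound protein, and the array was scanned at 488 nm. Binding intensity is taken as the highest Masliner-normalised natural-log median intensity across replicate spots of either probe orientation.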
row,Sequence,gcPBM binding intensity (ln)
1,TCTTACAAAAAACAAACAGAGAAAAATATAAGGAAA [XGTACX_negctrl_site520],8.91 ± 0.47
2,CATACACAAGAAAATTCACACACACCCATATATATA [CACACA_site9288],8.88 ± 0.22
3,TTTTTTTCATATAACACACACACAAAAATAATGTGG [CACACA_site3688],8.44 ± 0.4
4,TTGTTATAGAAGCATTCACACACACCCATACATACA [CACACA_site8414],8.95 ± 0.35
5,ATATATATATATCATAGTACACATATGTGTCTCGTG [XGTACX_site774],9.74 ± 0.21
6,AAGTTAACAATATGAAGTACAAATGAAAAAAAAAAA [XGTACX_site666],8.93 ± 0.23
7,ATATATATTTATTTATGTACGAATAAATTTACGAAT [XGTACX_site5190],8.45 ± 0.35
8,TTAATAGGTCGAAGTAGTACATAAAAATATATATAT [XGTACX_site5960],9.265 ± 0.078
9,AATATCATTATATAAGTGCATTTTTTAAAAGATAAA [GTGCAC_site9479],8.36 ± 0.2
10,TTTAATTTGTTATACACACACAAAAAAAATTATAAA [CACACA_site3937],8.46 ± 0.49
11,ATTCTATATTTAAATGCATGCACTTTCTATTTTTTT [TGCATGCA_site435],10.6 ± 0.52
12,GCTAAAAGTATATGCACACACATATAGATGCACATA [CACACA_site6868],8.57 ± 0.14
13,GACACTTTGAAGGGTACATGCAGAAAAAAAAAAAAA [TGCATGCA_site89],8.96 ± 0.43
14,TTTTATTTATCTAATTGTACTCATTCTTTTTTGATG [XGTACX_site2876],8.335 ± 0.007
15,TTTTAAAAAAAAAAAAAAAAAATTAAAATAATTCAA [TGCATGCA_negctrl_site69],7.61 ± 0.36
16,ATAAAATAATTAATGGGTACATAATTAAATAAAGAG [XGTACX_site3309],8.82 ± 0.3
17,AATGTGCCCACGCGTACACACAAAAAAAGAAAAAAA [CACACA_site2003],8.35 ± 0.38
18,CATACATAGAAACACACACACACACCCACCCACAAA [CACACA_site494],9.07 ± 0.64
19,GGATAAGATGTATATACACACAATTTAAAAAAATAA [CACACA_site910],8.44 ± 0.38
20,GTGTAATTTATTGTGTTGCACTTTTTTTTTTTTTTT [GTGCAC_site9644],8.7 ± 0.26
21,AATACAATTTTTAACACACACACAATAATACAGATA [CACACA_site4823],8.79 ± 0.56
22,TTAATATAGGAATATGCACACATATATACATACATA [CACACA_site8432],8.38 ± 0.23

row,Sequence,gcPBM binding intensity (ln)
1,AAGATAGACTCATATGCATGCATTCACATACCAACA [TGCATGCA_site179],9.95 ± 0.4
2,TGATGGGACATAAATATTGAGATGATCATAAGATAA [TGCATGCA_negctrl_site276],8.7 ± 0.46
3,TATATCATAAAAAATTGTACATATATATATTATATA [XGTACX_site6726],8.35 ± 0.28
4,AAAGATAATATATGCACACATATAAATATATAAATA [CACACA_site3477],8.45 ± 0.34
5,TATTTATTATATAAATGTACATAATATATGTATGTC [XGTACX_site2815],8.4 ± 0.36
6,AAAAAAAAAAAAAGTACACACTTTTGCGTACAAGTA [CACACA_site5672],8.37 ± 0.36
7,AAATATAATTTGCGATGTACACATATATATTTATTT [XGTACX_site1568],8.5 ± 0.42
8,TGAAATGATATATAAACACACATATATAAATATGTA [CACACA_site7616],8.18 ± 0.42
9,AAGAAAAAAAAAAAAAAAAAAAAAAAAAATTTATGA [TGCATGCA_negctrl_site294],7.83 ± 0.66
10,CAGTTATTTTAATGTGGTACACAATTTTAAAATTAT [XGTACX_site8571],8.31 ± 0.3
11,AATTTTATAAAAAGTAGTACATATCAAACACCTTGA [XGTACX_site2297],8.72 ± 0.38
12,TACCTATACCTATACACACACACACGGAAATAAATA [CACACA_site6750],8.87 ± 0.5
13,ATATAAAATGAACATAGTACTTTTTATATATTTTAA [XGTACX_site7461],8.05 ± 0.36
14,TGACTTTTTTTTTTTTTTTTTTTTTTTTATCTTTTT [CACACA_negctrl_site481],8 ± 0.49
15,TTATGATTATAACGTTTTGACATTAGGCATATATAT [CACACA_negctrl_site1396],8.45 ± 0.51
16,TACCCAAAGTTACATACACACTAATATTTACACCAT [CACACA_site4709],8.64 ± 0.47
17,GATGTTCATCACTACACACACAAAGAAATATAAATA [CACACA_site7294],8.65 ± 0.69
18,ATATGAAGTTATATAGTGCACATGTACAACCAAATC [GTGCAC_site9974],9.12 ± 0.24
19,TAATAATAGTGAGAGTGTACTTTAAATAAAATATAT [XGTACX_site2850],8.28 ± 0.23
20,TTCTATATATATATAGACAAACGATAAAATAAAAAA [GTGCAC_negctrl_site142],8.8 ± 0.4
21,AGAAAAGAAATTAGTTGTACTCTGATGAATTATCCT [XGTACX_site6284],8.31 ± 0.33
22,ATAATATTATACTTTGCACACATCTGAAATGACATA [CACACA_site3952],8.94 ± 0.23

row,Sequence,gcPBM binding intensity (ln)
1,TACAATTTGATATATACACACAAATAAATTATGCTT [CACACA_site6534],8.13 ± 0.31
2,AAAAGTACAATATATATGTATGTGTATAGAATGGTT [TGCATGCA_negctrl_site76],8.94 ± 0.43
3,AAAAAACAGACATACACACACACACCCATATATATA [CACACA_site3392],8.79 ± 0.38
4,TTTGATAAAATTGATATCCTATAATTATATAAATAA [GTGCAC_negctrl_site317],8.04 ± 0.46
5,GATAAAATAAAAGTGGGTACTTAAATATATATATAA [XGTACX_site8457],8.48 ± 0.42
6,TAATATTATTATTTTACACACTTTTTTCCTTTTATC [CACACA_site2457],8.66 ± 0.41
7,AAAGAATTTAAATATTGTACGCAATATATAAAAAAA [XGTACX_site7616],8.68 ± 0.24
8,TGTATGTATAAAAACGCATGTATGTATTTTACAATA [TGCATGCA_site767],8.42 ± 0.41
9,ATGTATATATATATATGTACTAATTAGTAGTTTACG [XGTACX_site6272],8.91 ± 0.4
10,AAAATTAAAAATAACACACACATATATATATTTATA [CACACA_site2776],8.43 ± 0.39
11,GATATTTTTTTCGAAAGTACAAAAAAAAATATTTCC [XGTACX_site4389],8.34 ± 0.23
12,ATATATATACCAAGTAGTACATTCTACAACTAATGT [XGTACX_site8653],8.53 ± 0.2
13,TACTAAGAATTAATATAACAAAATAAAAAAAAAAAA [XGTACX_negctrl_site346],8.31 ± 0.42
14,ATACAGATATATAATACACACATAAATGTAACATTT [CACACA_site5864],8.66 ± 0.45
15,TAGATACATACACGCACACACATATATATATATATA [CACACA_site12],10.2 ± 0.29
16,AATGTACGTTTTATAACACACACACTAATAAAAAAA [CACACA_site9286],8.63 ± 0.39
17,CCACATTAAAAAAAAACACACATATATTATAGATAT [CACACA_site6662],8.55 ± 0.49
18,ATCTTCAAAAATATTAGTACACATGTATCATGAATT [XGTACX_site3872],8.62 ± 0.24
19,TTTATTTGTAACGGTTGTACTTGTATATCATTATGA [XGTACX_site4281],8.67 ± 0.3
20,TAGTGATATAATTATGTGCACTTAATACAGGTCGAT,9.09 ± 0.12
21,CTTAAATTTAAGTTCACACATATTGGTCATTTATAT [CACACA_site5006],8.6 ± 0.5
22,CACTAAAATAGACACACACACACACGGATATAAATA [CACACA_site7873],8.78 ± 0.58

row,Sequence,gcPBM binding intensity (ln)
1,AATTATATGCTTAATACGCACACGGGAAAAAAAAAA [CACACA_site1376],8.65 ± 0.39
2,TTTTCAAAAATATACACACACATAAATATCTGTATA [CACACA_site4586],8.22 ± 0.39
3,TAAATAAAAAAAAATCGTACATATATTTTATATATG [XGTACX_site3293],8.12 ± 0.4
4,TATTTACATTTTAGTAGTACATATATGTATATATAT [XGTACX_site6839],8.57 ± 0.24
5,TCGTAATAATAGTTGAGTACGCACTAATATGTCAAT [XGTACX_site643],8.87 ± 0.38
6,AGATAAAATATATATGCACACACATATATATTTCAT [CACACA_site9183],8.43 ± 0.19
7,TTAATAATTAATATATGTACTGATAAATAACATATA [XGTACX_site3966],8.29 ± 0.3
8,ATTCTATATAAATATACACACATATATAAAATACAT [CACACA_site2293],8.45 ± 0.39
9,TAATTATTTAAAAAGAGTACATTTTTTTTTTTTTTT [XGTACX_site1060],8.25 ± 0.2
10,ATAATTATTTAATATATATATATTATTTCGAATGTT [GTGCAC_negctrl_site688],8.59 ± 0.58
11,ACATATCTATCGTTTTTAATTGTATATTATTATAAC [TGCATGCA_negctrl_site144],8.46 ± 0.5
12,TGTTTGTAATTATGTATGCACTTTTTTGTATGTGTG [GTGCAC_site9668],8.85 ± 0.38
13,TCCCACTGTTATATTGAAAAAAAAAAAAAAAAAAAA [TGCATGCA_negctrl_site288],7.96 ± 0.5
14,AGAAAAAAACAACATGCACACGCACCCACAAAAAAA [CACACA_site7908],8.88 ± 0.3
15,ATATTCTTGTTTAATACACACTGTAGTATTATATAT [CACACA_site4400],8.84 ± 0.58
16,TAATGAGCGCTTGTAGTGCATTATATTCAAAAATAT,8.54 ± 0.2
17,TCTTGTATATGTTAAAGTACACAACAATATATATAT [XGTACX_site6814],9.55 ± 0.16
18,ATACCTTCTTTTATGTTTAATTAATATACTTTTTAT [CACACA_negctrl_site1557],9.03 ± 0.54
19,TTTGAAAAAAATTAATGTACATTTGAAATGACATAT [XGTACX_site3902],8.21 ± 0.3
20,GTATAAAAGTTATATACACACAACAGAATTACATAT [CACACA_site6212],8.68 ± 0.49
21,AAAAAAAAAAAACACACACACACAAATATATAAAAA [CACACA_site1171],8.53 ± 0.59
22,AATACATACATACATACACACATATAAATATATTAT [CACACA_site7650],8.59 ± 0.48
